PubChem BioAssay AID488969 (Vanderbilt High Throughput Screening Facility, 2010)
Whole data set: some 110,000 compounds, median “z-score” near -0.1, cut for the highest 2% near 2. The list shows a part of the results.

target: Metabotropic glutamate receptor 8 (Rattus norvegicus) (UniProt P70579); experiment: rat mGluR8 modulators via GIRK flux, primary screen, cell-based, thallium flux, HTS (AID 488969); conditions: HEK293 rat mGluR8, GIRK (G protein-gated inwardly rectifying potassium channel) thallium flux, FluoZin2; at 10 µM; stronger effect = higher value; submaximal glutamate (EC20) added with thallium
Sequence of UniProt P70579 (P70579 whole entry, looked up): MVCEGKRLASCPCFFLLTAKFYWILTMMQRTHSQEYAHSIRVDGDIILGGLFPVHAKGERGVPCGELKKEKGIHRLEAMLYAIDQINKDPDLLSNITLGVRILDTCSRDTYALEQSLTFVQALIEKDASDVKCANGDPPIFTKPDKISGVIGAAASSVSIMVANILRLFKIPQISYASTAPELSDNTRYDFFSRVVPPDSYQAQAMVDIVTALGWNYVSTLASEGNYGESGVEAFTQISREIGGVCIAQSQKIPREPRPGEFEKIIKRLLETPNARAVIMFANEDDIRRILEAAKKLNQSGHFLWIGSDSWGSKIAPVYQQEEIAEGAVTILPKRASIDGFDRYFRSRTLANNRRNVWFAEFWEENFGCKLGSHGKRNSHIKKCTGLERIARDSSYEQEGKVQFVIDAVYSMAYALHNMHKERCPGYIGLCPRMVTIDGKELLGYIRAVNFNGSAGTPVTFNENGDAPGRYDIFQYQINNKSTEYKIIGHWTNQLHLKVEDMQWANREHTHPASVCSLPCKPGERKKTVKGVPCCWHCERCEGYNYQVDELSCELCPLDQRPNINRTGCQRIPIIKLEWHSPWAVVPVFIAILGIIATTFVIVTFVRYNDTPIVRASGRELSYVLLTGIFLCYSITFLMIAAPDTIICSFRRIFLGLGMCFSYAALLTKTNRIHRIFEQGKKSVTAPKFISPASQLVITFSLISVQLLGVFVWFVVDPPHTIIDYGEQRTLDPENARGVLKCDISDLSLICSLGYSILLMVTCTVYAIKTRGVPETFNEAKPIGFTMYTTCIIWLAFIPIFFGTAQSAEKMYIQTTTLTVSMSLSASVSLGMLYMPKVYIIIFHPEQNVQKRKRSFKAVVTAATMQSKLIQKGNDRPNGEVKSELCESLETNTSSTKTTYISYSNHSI

| SMILES | z-score |
| --- | --- |
| Cc1sc(NC(=O)CN2CCOCC2)nc1-c1ccc2c(c1)CCN2S(=O)(=O)c1ccccc1 | -0.434 |
| O=C(Nc1cccc(Br)c1)c1ccc(Cl)c(S(=O)(=O)N2CCOCC2)c1 | 0.485 |
| S=C(NCc1cccnc1)Nc1ccc(Cl)cc1 | -0.0765 |
| COc1ccc(CCNC2=C(Cl)C(=O)N(CCc3ccc(OC)c(OC)c3)C2=O)cc1OC | 0.0704 |
| COc1ccc(CCNC2=NCC(C)S2)cc1 (stereo unspecified) | 0.0523 |
| COc1ccc(C(NC(=O)CC(C)C)NC(=O)CC(C)C)cc1OC | 0.0629 |
| COC(=O)Cn1cnc2sc(C)c(S(=O)(=O)N3CCN(c4ccccc4OC)CC3)c2c1=O | -0.493 |
| Cc1c(-c2ccccc2)nc2ccccc2c1C(=O)NCc1cccs1 | -0.631 |
| CCOC(=O)c1sc(NC(=O)Nc2ccccc2)cc1C | -0.416 |
| COc1ccc(/C=N/N2CCN(c3ccccc3OC)CC2)cc1OC | -0.122 |
| COc1ccc(/C=C/C(=O)c2ccc3ccccc3c2O)cc1CN1CCOCC1 | -0.236 |
| Cc1nc2cc(NC(=O)COc3ccc(C#N)cc3)ccc2n1-c1ccccc1 | 0.0424 |
| CC1CCC2(CC1)NC(=O)N(CC(=O)Nc1nc(-c3ccc(F)cc3)cs1)C2=O (stereo unspecified) | -0.163 |
| Cc1cccc(NC(NC(=O)c2cccnc2)C(Cl)(Cl)Cl)c1 (stereo unspecified) | -0.197 |
| CCc1c(C)c(C#N)c2nc3ccccc3n2c1NCC1CCCO1 (stereo unspecified) | -0.736 |
| CCOC(=O)N1CCC(c2cc(=O)n3[nH]ccc3n2)CC1 | -0.185 |
| CC1=C(C(=O)OCC(C)C)C(c2ccc(F)cc2)NC(=O)N1 (stereo unspecified) | -0.189 |
| Cc1ccc(S(=O)(=O)N/N=C/C(C)(C)CO)cc1 | 0.00385 |
| O=C(Nc1nnc(Cc2ccc(Cl)cc2)s1)c1ccco1 | -0.101 |
| CC(C)(C)C(=O)NC(=S)NCCc1ccccc1 | -0.0291 |
| S=c1[nH]ncc2ccccc12 | 1.12 |
| Cn1c(Cc2cccs2)n[nH]c1=S | -0.0633 |
| CSc1ccc(-c2nc(CSCC(=O)N3CCOCC3)c(C)o2)cc1 | -0.386 |
| Cn1c(=O)c2c(nc(Br)n2CCCc2ccccc2)n(C)c1=O | -0.207 |

| SMILES | z-score |
| --- | --- |
| COc1cc(NC(=S)N2CCN(c3ccccn3)CC2)cc(OC)c1 | -0.119 |
| CCCCN1C(=O)C(NC(=O)CC(C)C)(C(F)(F)F)C2=C1CC(C)(C)CC2=O (stereo unspecified) | 0.318 |
| Cc1ccccc1-n1c(SCC(=O)N/N=C/C=C/c2ccccc2[N+](=O)[O-])nc2ccccc2c1=O | -2.08 |
| c1ccc(Nc2nc(-c3ccncc3)cs2)cc1 | -0.305 |
| Cc1nc2ccc(-c3nc4ccccc4o3)cc2[nH]1 | 0.886 |
| CC(=O)NCc1ccc(C(=O)CSc2nnc(-c3ccncc3)n2Cc2ccccc2)o1 | -0.582 |
| CCC1(CC)C(=O)N(C)C(=O)NC1=NCc1ccccc1 | 0.146 |
| Cc1cc(C)c2nc(N3CCC(C(=O)N4CCCC4)CC3)sc2c1 | 0.802 |
| Cc1ccc(C(=O)Nc2ccc(S(=O)(=O)N3CCc4ccccc4C3)cc2)o1 | -0.223 |
| O=C(CSc1nc2ccccc2s1)Nc1ccc2c(c1)OCO2 | 0.271 |
| COC(=O)c1ccc(Oc2nc(N(C)C)nc(N3CCOCC3)n2)cc1 | -0.191 |
| O=C(CN1CCN(c2nc(-c3ccc(F)cc3)cs2)CC1)Nc1ccc2c(c1)OCO2 | -0.548 |
| OCCn1c(SCCOc2ccccc2F)nc2ccccc21 | -0.0383 |
| CCN1CCN(S(=O)(=O)c2cc(OCC(=O)NC3CCCCC3)c(C)cc2Cl)CC1 | -0.107 |
| CCOc1ccccc1NC(=S)NCc1ccco1 | -0.353 |
| COc1cc(OC)cc(-c2nnc(SCC(=O)N(Cc3ccccc3)C(C)(C)C)o2)c1 | -0.513 |
| Cn1c(=O)c2c(SCC(=O)N3CCOCC3)nc(CC(C)(C)C)nc2n(C)c1=O | 0.012 |
| COc1ccc(CNC(=O)C23CN(Cc4ccccc4)CC2C(c2ccc([N+](=O)[O-])cc2)=NO3)cc1 (stereo unspecified) | -0.186 |
| CCOC(=S)N/C(=N\S(=O)(=O)c1ccc(C)cc1)c1ccccc1 | 1.01 |
| Cc1ccc(N(NC(=O)C(C)(C)O)C(=O)c2ccccc2)cc1C | -0.118 |
| COC(=O)c1cc(=O)n(Cc2ccc3c(c2)OCO3)c(=Nc2ccc(F)cc2)s1 | 0.0157 |
| FC(F)(F)c1cccc(NC(=S)NC(c2ccccc2)c2ccccc2)c1 | 0.0552 |
| CCn1c(SCC(=O)NCc2ccco2)nnc1-c1c[nH]c2ccccc12 | -0.471 |
| O=c1[nH]ncc(N/N=C/c2ccccc2)c1Cl | 0.241 |

| SMILES | z-score |
| --- | --- |
| COCCNC(=S)NNC(=O)c1ccco1 | 0.195 |
| COc1cc(NC(=O)CCc2c(C)nc3nc(C)nn3c2C)cc(OC)c1 | -0.431 |
| CCN(CC(=O)N1CCc2ccccc2C1)S(=O)(=O)c1ccc2ccccc2c1 | -0.35 |
| O=C(N/N=C1/CCSC1)c1cccc([N+](=O)[O-])c1 | -0.137 |
| COC(=O)CSc1nnc(-c2ccc(S(=O)(=O)NCc3ccccc3Cl)cc2)o1 | -0.123 |
| Cn1c(=O)[nH]c(=O)c2c1nc(N1CCN(Cc3ccccc3)CC1)n2CCSc1ncccn1 | 0.135 |
| c1cc2ccc3ccc(CN4CCOCC4)c4ccc(c1)c2c34 | 0.117 |
| Cc1ccc(Cn2ccc(NC(=O)c3cc(C(C)C)on3)n2)cc1 | -0.206 |
| Clc1ccc(CNc2nnnn2-c2ccccc2)c(Cl)c1 | -0.0354 |
| COc1ccc(OCCCC(=O)Nc2cccc([N+](=O)[O-])c2C)cc1 | 1.52 |
| O=C(CSc1nc(-c2ccncc2)nn1CC(=O)N1CCCCC1)NC1CCCC1 | 0.489 |
| N/C(=N\OC(=O)c1ccc(F)cc1)c1nonc1N | 0.0542 |
| COc1ccc(-n2cnnc2SCC(=O)NC2CCCc3ccccc32)cc1 (stereo unspecified) | -0.364 |
| Cc1cc(C)nc(NN2C(=O)/C(=C/c3ccc(O)cc3)SC2=S)n1 | -0.387 |
| Cc1cccc2cc(COC(=O)c3ccccn3)c(=O)[nH]c12 | -0.024 |
| COc1ccc(-c2csc(=Nc3c(C)n(C)n(-c4ccccc4)c3=O)n2C(C)(C)C)cc1 | 0.0597 |
| CCOc1ccc(N=Cc2c(O)c3ccccc3oc2=O)cc1 | 0.0869 |
| CC(=O)c1cccc(NS(=O)(=O)c2c(C)noc2C)c1 | 0.0121 |
| Cc1cc(NC(=O)CSc2nc(-c3ccccc3)c(C#N)c(=O)[nH]2)no1 | -0.79 |
| Cn1c(NC(=O)c2cccc(Cn3cc(Cl)cn3)c2)nc2ccccc21 | -0.464 |
| COc1ccc(C(=O)C2CCCCC2=O)cc1 (stereo unspecified) | 0.0727 |
| Cc1cc(N)n2ncc(-c3cccc(Br)c3)c2n1 | 0.0531 |
| CCCOc1ccc(S(=O)(=O)NCCN2CCOCC2)c2ccccc12 | -0.108 |
